The whole screen tested about 360,000 compounds, of which about 25,000 (6.9%) were called active. The inconclusive results got no clear call from the source; some entries with a clear call stand among them for comparison. Calls follow the shape of the dose curve; as a rule, active = well fitted inhibition curve with a large enough effect; inconclusive = small, poorly fitted or top-dose-only effect; inactive = flat fitted curve, though single readings scatter. Where the call is inconclusive, the potency comes from a doubtful curve fit.
Biological target: Luciferin 4-monooxygenase (Photinus pyralis) (UniProt P08659)
Test: qHTS profiling assay for firefly luciferase inhibitor/activator using purifed enzyme and Km concentrations of substrates (counterscreen for miR-21 project); also: nearly all actives have a fitted effect of over 55% in size
Details: purified FLuc, luminescence inhibition; series mostly up to 57.5 µM
Summary of the method: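 Purified P. pyralis luciferase (10nM final) with 10uM D-luciferin and 10uM ATP (Km levels) in 50mM Tris acetate pH 7.5, 10mM Mg acetate, 0.01% Tween-20, 0.05% BSA; qHTS 6-point titration, ~60 µM downward; luminescence read.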
Potency is read from the fitted curve at half-maximal effect; tags tell the direction and shape of the fitted curve.

Sequence of UniProt P08659 (P08659 whole entry, looked up): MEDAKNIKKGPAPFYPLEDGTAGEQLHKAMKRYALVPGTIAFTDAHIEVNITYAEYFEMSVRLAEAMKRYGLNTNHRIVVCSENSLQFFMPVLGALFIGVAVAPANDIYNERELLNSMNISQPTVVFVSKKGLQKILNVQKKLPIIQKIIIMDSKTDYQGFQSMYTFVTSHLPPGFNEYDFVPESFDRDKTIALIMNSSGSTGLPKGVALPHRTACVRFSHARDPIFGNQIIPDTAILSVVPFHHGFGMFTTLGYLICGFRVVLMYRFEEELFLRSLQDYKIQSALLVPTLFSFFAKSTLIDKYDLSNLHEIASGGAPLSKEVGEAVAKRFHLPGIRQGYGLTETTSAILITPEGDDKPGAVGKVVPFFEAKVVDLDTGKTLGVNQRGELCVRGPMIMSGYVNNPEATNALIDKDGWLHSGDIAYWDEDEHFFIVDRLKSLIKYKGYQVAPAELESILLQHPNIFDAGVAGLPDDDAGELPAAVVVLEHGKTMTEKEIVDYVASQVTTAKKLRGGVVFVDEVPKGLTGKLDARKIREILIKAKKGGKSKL

| SMILES | Potency |
| --- | --- |
| CC(=O)N1c2ccccc2C(=O)C1N(C)c1ccc(C)cc1 (stereo unspecified) | inactive |
| Cc1ccccc1C(=O)NNC(=O)c1ccc(Br)cc1 | inconclusive: 23.9 µM [inhibitor, partial curve] |
| COC(=O)c1ccc2c(c1)N(CC(=O)Nc1cccc(C(F)(F)F)c1)C(=O)c1ccccc1S2 | inactive |
| CC(C)C1Nc2ccc(C(=O)NCCCN3CCOCC3)cc2NC1=O (stereo unspecified) | inactive |
| Cn1c(-c2ccc(C=O)s2)nc2ccccc21 | inconclusive: 23.9 µM [inhibitor, single point] |
| O=C(CSc1nc2c([nH]c3ccccc32)c(=O)n1-c1ccccc1F)Nc1ccccc1C(F)(F)F | inactive |
| COc1ccc(C(=O)n2nc(C)cc2Nc2ccccc2)cc1 | active: 10.7 µM |
| Cc1ccc(-c2cc(C(=O)Nc3cnn(C(C)C)c3)no2)cc1 | inconclusive: 2.69 µM [inhibitor, full curve] |
| CCCCN(C)CCCNC(=O)c1cc(Nc2ccc(OC)c(OC)c2)nc2ccccc12 | inconclusive: 37.9 µM [inhibitor, single point] |
| CN(NC1OC(=O)c2ccccc21)c1ccc(Cl)cc1[N+](=O)[O-] (stereo unspecified) | inconclusive: 21.3 µM [inhibitor, single point] |
| COCCn1c(C)cc(C(=O)CSc2n[nH]c(N)n2)c1C | inconclusive: 23.9 µM [inhibitor, partial curve, poor fit] |
| Cc1c(C(=O)N2CCCc3ccccc32)oc2ccccc12 | inconclusive: 23.9 µM [inhibitor, single point] |
| Cc1ccc([N+](=O)[O-])c(C(=O)N/N=C/c2cccs2)c1 | inconclusive: 19 µM [inhibitor, partial curve] |
| O=C(CN(CCc1ccccc1)S(=O)(=O)c1ccccc1)NCc1ccc(Cl)cc1 | inconclusive: 30.1 µM [inhibitor, partial curve, poor fit] |
| N#CCCN(Cc1ccccc1)C(=O)Nc1ccc(F)cc1 | inactive |
| Cc1oc2ccc(OCC(N)=O)cc2c1C(=O)OC(C)C | inactive |
| CN(Cc1ccc(F)cc1)S(=O)(=O)c1nnc(NC(=O)c2ccc(F)cc2)s1 | inconclusive: 13.5 µM [inhibitor, partial curve, poor fit] |
| Cc1ccc2cc(/C=N/NC(=O)CN3CCOCC3)c(Cl)nc2c1 | inactive |
| COc1ccc(CN=C2NN=C(c3cccc(OC)c3)CS2)cc1 | inconclusive: 26.9 µM [inhibitor, partial curve] |
| COc1ccc(Cn2ccnc2SCC(=O)Nc2cc(C(F)(F)F)ccc2Cl)cc1 | inactive |
| Cc1ccc2[nH]c3ccccc3c(=O)c2c1 | active: 16.9 µM |
| COc1ccc(-c2cn3nc(N4CCCC(C(=O)NCc5ccccc5C)C4)sc3n2)cc1 (stereo unspecified) | inconclusive: 7.57 µM [inhibitor, partial curve] |
| CCOC(=O)c1ccccc1NC(=O)c1sc2ccccc2c1Cl | inconclusive: 6.75 µM [inhibitor, full curve] |
| CCc1ccc(C(=O)Nc2cc(C)on2)o1 | inconclusive: 19 µM [inhibitor, partial curve] |

| SMILES | Potency |
| --- | --- |
| O=S(=O)(Nc1cccc(-c2ccc(N3CCCC3)nn2)c1)c1ccc(F)cc1F | active: 15.1 µM |
| CN(C)c1ccc(CC(=O)c2nc3ccccc3s2)cc1 | active: 8.49 µM |
| O=C(Oc1ccc2ccc(=O)oc2c1)C1CCCCC1 | inconclusive: 37.9 µM [inhibitor, single point] |
| C=CCSc1nnc(-c2sc(-c3ccccc3)nc2C)n1C | inconclusive: 23.9 µM [inhibitor, single point] |
| CCCn1nc(NC(=O)c2ccco2)c2cc3cc(C)ccc3nc21 | inconclusive: 13.5 µM [inhibitor, partial curve] |
| O=C(COC(=O)COc1ccc(Nc2ccccc2)cc1)NCc1ccco1 | inconclusive: 23.9 µM [inhibitor, single point] |
| CCc1nnc(NS(=O)(=O)c2ccc(NC(=O)c3ccco3)cc2)s1 | inconclusive: 30.1 µM [inhibitor, partial curve, poor fit] |
| CCCN(CC(=O)Nc1ccc(Cl)cc1Cl)C(=O)/C=C/c1cc(OC)ccc1OC | inactive |
| O=C(c1ccc(-c2ccc(Cl)cc2Cl)o1)N1CCOCC1 | active: 8.49 µM |
| CC(=O)c1ccc(NC(=O)CCCc2nc(-c3cccc(C)c3)no2)cc1 | inconclusive: 15.1 µM [inhibitor, partial curve] |
| CCN(CC(=O)Nc1ccc(NC(C)=O)cc1)C(=O)c1cccc(S(=O)(=O)N2CCc3ccccc3C2)c1 | inconclusive: 23.9 µM [inhibitor, partial curve, poor fit] |
| CCOc1ccc2cc(C#N)c(SCC(=O)OC)nc2c1 | inconclusive: 1.51 µM [inhibitor, full curve] |
| O=C(NCc1ccccc1)Nc1cccn(Cc2ccc(Cl)cc2)c1=O | inconclusive: 4.26 µM [inhibitor, full curve] |
| CCOC(=O)Cc1csc(NC(=O)COc2ccc(C)c(C)c2)n1 | inconclusive: 19 µM [inhibitor, partial curve, poor fit] |
| O=C1c2ccccc2NC(c2ccc(-c3cccc(F)c3)o2)N1O (stereo unspecified) | inconclusive: 13.5 µM [inhibitor, single point] |
| COc1ccc(C(=O)CSc2nccn2C)c(OC)c1 | active: 13.5 µM |
| COc1ccc(-c2cc(N)n(S(=O)(=O)c3c(F)c(F)c(F)c(F)c3F)n2)cc1OC | inconclusive: 23.9 µM [inhibitor, partial curve, poor fit] |
| Cc1cc(OCc2cccc(Cl)c2)c(C)cc1CN1CCOCC1 | inconclusive: 26.9 µM [inhibitor, single point] |
| Cc1c(NC(=O)COC(=O)c2cc(-c3cccc4ccccc34)nc3ccccc23)c(=O)n(-c2ccccc2)n1C | inconclusive: 19 µM [inhibitor, partial curve, poor fit] |
| CC(C)CC(NC(=O)c1ccco1)C(=O)Nc1ccc2c(c1)OCCO2 (stereo unspecified) | inconclusive: 26.9 µM [inhibitor, single point] |
| O=C(/C=C/c1ccccc1[N+](=O)[O-])OC1CCCCC1=O (stereo unspecified) | active: 15.1 µM |
| O=c1[nH]sc2ccccc12 | inconclusive: 16.9 µM [inhibitor, partial curve] |
| COc1ccccc1-n1cc(C(=O)NCC(=O)N2CCN(Cc3ccccc3)CC2)c2ccccc2c1=O | inconclusive: 26.9 µM [inhibitor, partial curve, poor fit] |
| O=C(CC1C(=O)N(c2ccccc2)C(=O)N1Cc1ccc2c(c1)OCO2)Nc1ccccc1 (stereo unspecified) | inactive |

| SMILES | Potency |
| --- | --- |
| Oc1ccc(Cl)cc1CNCC1CCCCC1 | inconclusive: 33.8 µM [inhibitor, partial curve, poor fit] |
| O=c1ccc(N=Nc2ccccc2)ccc1O | inconclusive: 19 µM [inhibitor, partial curve, poor fit] |
| COCCN1CCN(C(=O)c2cc(COc3ccc(Cl)cc3OC)on2)CC1 | active: 10.7 µM |
| CNc1nc(-c2ccccc2)cc(-c2ccccc2)n1 | inactive |
| COc1ccc(/C=C2\SC(=O)N(CCNC(=O)C3CC(=O)N(c4ccccc4)C3)C2=O)cc1 (stereo unspecified) | inconclusive: 26.9 µM [inhibitor, partial curve] |
| O=C(NCc1ccccc1Cl)c1ccc2ccccc2n1 | active: 15.1 µM |
| CCN(c1ccc(NC(=O)COC(=O)CCC(=O)c2ccc(F)cc2)cc1)C(C)C | inconclusive: 19 µM [inhibitor, single point] |
| CCCn1c(=O)c2c(C(=O)OCC)cc(-c3ccco3)nc2n(CCC)c1=O | inactive |
| COc1ccccc1OCC(=O)N/N=C1\CCc2ccccc21 | active: 21.3 µM |
| CC1=C/C(=N\N=C2\NC(=O)C(CC(=O)Nc3ccccc3F)S2)CC(C)(C)C1 (stereo unspecified) | inconclusive: 15.1 µM [inhibitor, partial curve, poor fit] |
| CCc1ccccc1NC(=O)CSc1ncc(S(=O)(=O)c2ccccc2)c(=O)[nH]1 | inconclusive: 21.3 µM [inhibitor, single point] |
| COc1ccc(C(=O)Nc2ncc3c(n2)CC(C)CC3=O)cc1 (stereo unspecified) | inconclusive: 21.3 µM [inhibitor, single point] |
| CCCOc1ccc(NC(=O)CC2C(=O)N(c3ccc(Cl)cc3)C(=O)N2CCc2ccncc2)cc1 (stereo unspecified) | inconclusive: 37.9 µM [inhibitor, single point] |
| Cn1c(OCc2ccc3c(c2)OCO3)nc2c1c(=O)n(Cc1ccc(Cl)c(Cl)c1)c(=O)n2C | inactive |
| O=[N+]([O-])c1cccc(C(=NCc2ccccc2)NO)c1 | inactive |
| CCN(CC(=O)Nc1c(C(=O)OC)[nH]c2ccc(Cl)cc12)c1ccc2c(c1)OCO2 | inactive |
| c1ccc2[nH]c(NCc3ccc4c(c3)OCO4)nc2c1 | active: 3.38 µM |
| Cc1ccc(OC(=O)c2cccnc2)cc1 | inconclusive: 30.1 µM [inhibitor, partial curve, poor fit] |
| CCn1c(=N)n(CC(=O)c2cccc(OC)c2)c2ccccc21 | inconclusive: 23.9 µM [inhibitor, partial curve, poor fit] |
| CSCC[C@H](NC(=O)N1CCn2c1nc1ccccc12)C(=O)NCC1CCCO1 (stereo partly specified) | inactive |
| CS(=O)(=O)N1CCN(c2nc(-c3ccc(F)cc3)cs2)CC1 | active: 10.7 µM |
| CN1CCc2nc3sc(C(=O)Nc4cccc(C#N)c4)c(N)c3cc2C1 | inconclusive: 15.1 µM [inhibitor, partial curve] |
| CCOC(=O)c1c(NC(=O)CSc2ccccc2C(=O)O)sc(C)c1C | inconclusive: 23.9 µM [inhibitor, partial curve, poor fit] |

From PubChem BioAssay AID588342 (National Center for Advancing Translational Sciences (NCATS), 2011)
